Assay results as given in patent publication US20180057604A1 (Genentech, published 2018).

Target: T1, human holo-transferrin (human)
T1 construct: also called holo-Tf; Tf
Assay: blocking ELISA: biotinylated huTfR binding to immobilized HFE

B1: human TfR extracellular domain with N-terminal His tag (receptor, not shown: small tags and cut ends)
chain: not shown
notes: Biotinylated in some assays; also called huTfR; HuTfR
B1: binds.
